Results on 80 compounds are retold here after ChEMBL document CHEMBL1201862, “PubChem BioAssay data set” (2004).

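Five compound concentrations were applied to cells in 96-well plates for 48 hours; endpoints were derived by simple linear interpolation of the resulting dose-response curve. At the GI50, growth is halved.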 Active and inactive are the calls of the source. Cut-off read from the data, not from the text of the source: active = GI50 up to about 1.1 µM and inactive = higher.

This experiment concerns NCI-H322M. The experiment can be described thus: DTP human tumour cell line panel, 48 h.
As usually defined, the GI50 is the concentration giving 50% growth inhibition. With `CC[C@@]1(O)C(=O)OCc2c1cc1n(c2=O)Cc2cc3c(NC(=O)CN)cccc3nc2-1`, the GI50 was inactive: 4.85 µM.

In the case of `O=C(O)/C(=C\c1ccc(O)cc1)c1cccc2ccccc12`, the GI50 was inactive: 85.1 µM.

With `COC(=O)c1cc(O)nc(O)n1`, the GI50 was inactive: > 100 µM.

For the compound `CCCc1cn2c(/C=N/NC(=N)N)c(-c3cccc([N+](=O)[O-])c3)nc2s1`, the GI50 was inactive: 1.36 µM.

Regarding `O=C1N[C@H]2c3c(Cl)sc(Cl)c3C(=O)[C@H]2O1`, the GI50 is inactive: 18.5 µM.

`COc1ccc(NC(=O)C(C#N)=C(SC)SC)cc1`: the GI50 is inactive: > 100 µM.

Regarding `C[C@]12[C@@H]3CC[C@H]1[C@@H](OC(=O)Nc1cc([N+](=O)[O-])cc([N+](=O)[O-])c1)C(=O)N2CC3`, the GI50 was inactive: > 100 µM.

On to `COCCOCc1nc(C#N)c(N)o1`, for which the GI50 was inactive: > 100 µM.

Turning to `Cc1cc(S(=O)(=O)Nc2nc(N)n(-c3cnc4ccccc4n3)n2)c(S)cc1Cl`, the GI50 was inactive: 76.9 µM.

For the compound `COc1cccc(-c2cc(=O)c3cc(C)c(C)c(C(=O)O)c3o2)c1`, the GI50 was inactive: > 100 µM.

Turning to `C(=C/CCCN1O[C@@H](CCCCCCCCc2cccnc2)[C@H]2CCC[C@H]21)/CCCCCCCCCc1cccnc1`, the GI50 was inactive: 16.3 µM.

Regarding `Cc1no[n+]([O-])c1/C=N/NS(=O)(=O)c1ccccc1`, the GI50 is inactive: > 100 µM.

Consider `COc1cccc(C23CCCC(C2)NCC3Br)c1OC` (stereo not given), for which the GI50 was inactive: > 100 µM.

As to `c1ccc(-c2ccc(/N=N/N3CCCC3)cc2)cc1`, the GI50 was inactive: > 100 µM.

`COc1cc(OC)c(OC)cc1/C=N/NC(=O)N/N=C/c1cc(OC)c(OC)cc1OC`: the GI50 was inactive: > 100 µM.

In the case of `CCOC(=O)C1=C(O)C(=O)c2cc(C)ccc2C1=O`, the GI50 is inactive: 31.8 µM.

Regarding `Cc1c(Cl)ccc2c1NC(=O)C2(O)CC(=O)c1cccc2ccccc12` (stereo not given), the GI50 was inactive: > 100 µM.

As for `CC(=O)OC/C=C(/CCl)CCC(Br)C(C)(C)Br.CC(=O)OC/C=C(\CCl)CCC(Br)C(C)(C)Br` (stereo not given), the GI50 was inactive: > 10 µM.

`N#CC(/C(=N/NC(=O)C(=O)NN)C(=O)Nc1nc([N+](=O)[O-])cs1)c1ccc(Cl)cc1` (stereo not given): the GI50 is inactive: > 100 µM.

In the case of `Cc1cc(C)n(CN(Cn2nc(C)cc2C)c2ccc(N(Cn3nc(C)cc3C)Cn3nc(C)cc3C)cc2)n1`, the GI50 was inactive: 22.5 µM.

For the compound `CC(C)(CCCCC(C)(C)NCC1COc2ccccc2O1)NCC1COc2ccccc2O1` (stereo not given), the GI50 is inactive: > 10 µM.

Take `COc1ccccc1NC(=S)Nc1cccc(C)n1`: the GI50 was inactive: > 100 µM.

Consider `CCOC(=O)C1=C(C)N(C)C23OC4(C(=O)OC)CC2c2ccccc2C1N3C4=O` (stereo not given), for which the GI50 is inactive: 67.6 µM.

With `CC1=C(C(=O)Nc2ccccc2)C(c2ccc(N(C)C)cc2)C(C(=O)Nc2ccccc2)=C(C)N1`, the GI50 was inactive: 17.5 µM.

As for `CCCCC(=O)c1ccc2ccccc2c1O`, the GI50 was inactive: > 100 µM.

In the case of `C/C(=N\NC(N)=O)C(CN1CCOCC1)C(c1ccccc1)c1c(O)c2ccccc2oc1=O` (stereo not given), the GI50 was inactive: > 100 µM.

Take `O=C(Nc1ccccc1)c1cc(S(=O)(=O)N2CCNC2=O)c(S)cc1Cl`: the GI50 was inactive: > 100 µM.

For `C/C=C/COc1cc(NC(=S)c2ccoc2C)ccc1OC`, the GI50 is inactive: > 100 µM.

Consider `COc1ccc(OC)c(NC(=O)C(=O)CC(=O)c2sc(-n3nc(-c4ccccc4)cc3-c3ccccc3)nc2C)c1`, for which the GI50 was inactive: > 100 µM.

On to `CC(C)C1CC=NN1C(=O)OC(C)(C)C` (stereo not given), for which the GI50 was inactive: 81.1 µM.

As to `N=C1N(c2ccccc2)C(=O)C23CCCC2C13N1CCOCC1` (stereo not given), the GI50 is inactive: > 100 µM.

On to `Cc1cc2c(O)c(c1)CN(Cc1ccccc1)Cc1cc(C)cc(c1O)CN(Cc1ccccc1)Cc1cc(C)cc(c1O)CN(Cc1ccccc1)C2`, for which the GI50 was inactive: > 100 µM.

As for `COc1ccc(-c2nc(N3CCCC3)no2)cc1`, the GI50 is inactive: 54.7 µM.

For the compound `O=c1cc(-c2ccccc2)[nH]c2ccc(N3CCOCC3)cc12`, the GI50 was active: 0.031 µM.

For `CCOC(=O)N1CCNCCN(C(=O)OCC)CCNCC1`, the GI50 was inactive: > 100 µM.

For `O=C1[C@@H]2C(c3ccccc3[N+](=O)[O-])=[N+](c3ccccc3)O[C@@H]2C(=O)N1c1ccc(Cc2ccc(N3C(=O)[C@H]4C(c5ccccc5[N+](=O)[O-])=[N+](c5ccccc5)O[C@H]4C3=O)cc2)cc1`, the GI50 is inactive: > 100 µM.

As for `CCOC(=O)c1csc(NC(=O)CN2CCCC2)n1`, the GI50 was inactive: > 100 µM.

On to `COC1CCC(O)C(CO)O1` (stereo not given), for which the GI50 was inactive: > 100 µM.

With `C=C1C(=O)OC2CC3(C)C=CC(=O)C(=C)C3CC12` (stereo not given), the GI50 is inactive: 11.8 µM.

Regarding `C[C@]1(S(=O)(=O)c2ccccc2)C[C@H]2N(Cc3ccccc3)[C@@H]1CCC21OCCO1`, the GI50 is inactive: > 100 µM.

For `CN1CCCCCC(=N\O)/C(=N/O)CCCCC1`, the GI50 was inactive: > 100 µM.

On to `O=C(c1cc(Cl)ccc1Cl)N1CCN(c2cccc(Cl)c2)CC1`, for which the GI50 was inactive: 26.9 µM.

For `CCn1c2c(c3c(C(=O)OC)c(O)ccc31)C(=O)c1ccccc1C2=O`, the GI50 was inactive: 26.9 µM.

Turning to `CCSC(SCC)c1cc2c(cc1Br)OCO2`, the GI50 is inactive: 21.1 µM.

Turning to `CCOC(=O)CCN1C(=O)c2ccc(NC(=O)C(=O)O)cc2S1(=O)=O`, the GI50 is inactive: > 100 µM.

With `C[C@]12C[C@@H](c3ccccc3)Nc3ccccc3N1C(c1ccccc1)=NO2`, the GI50 was inactive: 53.7 µM.

Turning to `COC(=O)C1C2C=CC(C2)C1(C(=O)OC)[S+]([O-])CC12CCC(CC1O)C2(C)C` (stereo not given), the GI50 is inactive: > 100 µM.

On to `COc1ccc(-c2c3ccccc3c(-c3ccc(OC)cc3)c3ccccc23)cc1`, for which the GI50 was inactive: > 100 µM.

For `O=C(Nc1cc(Cl)cc(Cl)c1)/C(Cc1nc2ccccc2nc1O)=N/NC(=O)c1ccncc1`, the GI50 is inactive: > 100 µM.

`O=C(NCCCCCCNC(=O)n1cc(F)c(=O)[nH]c1=O)NCCCOCCOCCOCCOCCOCCOCCOCCOCCOCCOCCOCCOCCOCCOCCOCCOCCOCCOCCOCCOCCOCCCNC(=O)C(O)C(O)C(OC1OC(CO)C(O)C(O)C1O)C(O)CO` (stereo not given): the GI50 is inactive: 44 µM.

With `CC(C)Sc1nc(C#N)cc2c1CCCC2`, the GI50 was inactive: > 100 µM.

Turning to `Cc1ccc(S(=O)(=O)Nn2c(C)cc3ccc(S(=O)(=O)Nc4ccccc4[N+](=O)[O-])cc3c2=O)cc1`, the GI50 is inactive: > 100 µM.

For `CC(=O)Nc1ccc(-c2nnc(SCC(=O)Nc3ccccc3[N+](=O)[O-])o2)cc1`, the GI50 is inactive: > 100 µM.

On to `Cc1ccc(Cc2nnc(S)[nH]2)cc1`, for which the GI50 is inactive: 97.9 µM.

In the case of `COc1ccc(/C(=N/N=c2\[nH]c3ccccc3n2Cc2ccccc2)C(=O)O)cc1`, the GI50 is inactive: 16.6 µM.

Consider `O=C(CC(=O)Nc1ccccc1Cl)NNC(Sc1ccccc1)c1cc(/N=N/c2ccc(Br)cc2)ccc1O` (stereo not given), for which the GI50 is active: 0.611 µM.

On to `O=[N+]([O-])CCc1cccc([N+](=O)[O-])c1`, for which the GI50 was inactive: > 100 µM.

As for `Nc1nc(SCc2ccccc2Cl)c2[nH]cnc2n1`, the GI50 was inactive: > 100 µM.

In the case of `O=C1C=CC(=O)c2c(O)c(N(CCCl)CCCl)c(Cl)c(O)c21`, the GI50 is inactive: > 10 µM.

`COC(=O)C12CC3CC(C1)CC(C(=O)OC)(C3)C2`: the GI50 is inactive: > 100 µM.

`O=C1C=C2CCCC2C(C(=O)O)(C(=O)O)C1` (stereo not given): the GI50 was inactive: > 100 µM.

`COC(=O)C(=O)C(C(=O)OC)C(=O)C(=O)Nc1ccccc1C(N)=O` (stereo not given): the GI50 is inactive: > 100 µM.

With `COc1ccc(/C(C=O)=C(\Cl)c2ccc(OC)c(OC)c2)cc1`, the GI50 was inactive: > 100 µM.

On to `O=C(O)/C(=C/c1ccccc1[N+](=O)[O-])c1cccs1`, for which the GI50 is inactive: > 100 µM.

Take `Cc1cn(C2CC(N=[N+]=[N-])C(CO)O2)c(=O)n(CCCCO)c1=O` (stereo not given): the GI50 was inactive: > 100 µM.

Take `CCNC(=O)COc1ccc(Br)cc1Br`: the GI50 was inactive: > 100 µM.

Take `O=C(c1cccnc1)N1N=C(c2ccc(Cl)cc2)CC1(O)c1cc(F)c(Cl)cc1Cl` (stereo not given): the GI50 was inactive: 31.3 µM.

For `OCCC1(O)CCC(O)CC1` (stereo not given), the GI50 is inactive: > 100 µM.

On to `O=C1Nc2cc([N+](=O)[O-])ccc2N/C1=C/C(=O)c1ccc(Cl)cc1`, for which the GI50 was inactive: 14.2 µM.

`COC12C=CC(C=C1C#N)CC2.COC12C=CC(CC1)CC2=O` (stereo not given): the GI50 was inactive: > 100 µM.

With `Nc1c(C(=O)O)nnc2cc(Cl)ccc12`, the GI50 is inactive: > 100 µM.

Take `COC(=O)C1=C(C)NC(C)=C(C(=O)OC)C1c1nc2sccn2c1[N+](=O)[O-]`: the GI50 is inactive: > 100 µM.

As to `CCc1cc(Cc2cc(CC)c(NC(=O)C3=CC(=O)CC(c4ccc(OC)cc4)O3)c(CC)c2Cl)c(Cl)c(CC)c1NC(=O)C1=CC(=O)CC(c2ccc(OC)cc2)O1` (stereo not given), the GI50 was inactive: 25.9 µM.

Take `CON(C)C(=O)[C@H]1C[C@@]1(C)CO`: the GI50 is inactive: > 100 µM.

As to `COc1cc(/C=C/C(=O)O)ccc1OS(=O)(=O)O`, the GI50 is inactive: > 100 µM.

For `C=C1CC(OC)(C(OC)C(=O)N(C)[C@H]2OCO[C@H]3C2O[C@H](C[C@@H](COC)OC)C(C)(C)C3OC)O[C@H](C)[C@@H]1C` (stereo not given in full), the GI50 was inactive: 10.1 µM.

As to `COC1=CCC2=C(CCN(C(=O)C3CCC3)C2Cc2ccc(OC)c(O)c2)C1` (stereo not given), the GI50 is inactive: 16.5 µM.

As for `O=C(/C=C/c1ccc(O)c(O)c1)OCCOC(=O)/C=C/c1ccc(O)c(O)c1`, the GI50 was inactive: 27.5 µM.

Take `Cc1ccc(-n2c3nc(=O)n(C)c(=O)c-3nc3ccccc32)cc1`: the GI50 was inactive: 16.3 µM.

Turning to `O=Nc1c(-c2c(O)[nH]c3ccc(I)cc23)[nH]c2ccccc12`, the GI50 is inactive: 4.03 µM.
